Data on 23 compounds can be found in PMC4336329 (PLoS ONE, 2015).

The campaign covered roughly 310,000 compounds. About 14,000 (4.5%) showed an effect of 50% or more. Effects have a minus sign here. Some of the results follow.
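Further: peak tail current of the secondary pulse compared with the same well before compound.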

The assay deals with human ether-à-go-go-related gene (hERG) potassium channel (human, UniProt Q12809). Put plainly: primary screen, population patch clamp on CHO cells stably expressing hERG.
Chain of human ether-à-go-go-related gene (hERG) potassium channel (Q12809 whole entry, looked up): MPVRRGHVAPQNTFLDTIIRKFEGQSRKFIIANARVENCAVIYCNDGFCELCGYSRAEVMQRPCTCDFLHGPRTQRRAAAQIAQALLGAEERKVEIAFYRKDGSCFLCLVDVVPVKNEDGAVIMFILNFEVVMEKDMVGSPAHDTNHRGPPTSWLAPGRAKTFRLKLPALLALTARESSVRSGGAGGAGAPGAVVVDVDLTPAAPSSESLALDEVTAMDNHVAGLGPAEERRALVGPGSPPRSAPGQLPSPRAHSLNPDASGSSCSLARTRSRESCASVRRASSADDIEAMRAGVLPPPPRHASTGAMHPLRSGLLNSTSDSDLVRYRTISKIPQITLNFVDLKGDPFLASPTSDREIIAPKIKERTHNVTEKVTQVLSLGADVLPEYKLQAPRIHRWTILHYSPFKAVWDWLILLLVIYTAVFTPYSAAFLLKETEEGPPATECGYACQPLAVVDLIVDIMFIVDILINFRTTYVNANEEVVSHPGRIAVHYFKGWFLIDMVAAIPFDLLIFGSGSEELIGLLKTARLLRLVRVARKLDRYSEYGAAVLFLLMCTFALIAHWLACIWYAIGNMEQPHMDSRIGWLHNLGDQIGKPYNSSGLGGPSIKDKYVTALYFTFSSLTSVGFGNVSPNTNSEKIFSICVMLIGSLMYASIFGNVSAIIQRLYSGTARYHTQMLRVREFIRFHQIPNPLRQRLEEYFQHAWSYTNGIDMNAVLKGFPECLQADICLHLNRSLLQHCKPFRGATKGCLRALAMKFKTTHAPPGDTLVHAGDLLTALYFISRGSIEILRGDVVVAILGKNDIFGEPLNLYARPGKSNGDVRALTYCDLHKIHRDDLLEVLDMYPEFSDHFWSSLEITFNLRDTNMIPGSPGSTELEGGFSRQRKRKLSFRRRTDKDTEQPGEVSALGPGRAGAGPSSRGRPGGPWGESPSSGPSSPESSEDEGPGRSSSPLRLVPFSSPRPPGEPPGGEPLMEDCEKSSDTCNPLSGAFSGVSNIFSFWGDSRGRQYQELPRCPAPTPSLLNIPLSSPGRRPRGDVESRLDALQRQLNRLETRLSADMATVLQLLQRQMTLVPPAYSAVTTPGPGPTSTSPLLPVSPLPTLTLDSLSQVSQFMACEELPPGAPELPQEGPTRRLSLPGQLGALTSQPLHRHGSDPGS
As for `COc1ccc(-c2noc(=O)n2Cc2ccc(F)cc2Cl)cc1`, the “hERG current change (%, negative = inhibition) at 10uM” value is -7.78%.
The figure for `CCc1ccc(Nc2n[n+](-c3ccccc3)c(-c3ccc(C(=O)O)cc3)s2)cc1.[Cl-]` is 13.1%; for `CC/C=C\[C@H](O)[C@H](O)C1=C(C)C(=O)[C@]2(O1)C(=O)N[C@@](OC)(C(=O)c1ccccc1)C2O` (some centres unmarked) it is -6.87%; for `NC(=O)CC(NC(=O)Cc1cccc2ccccc12)c1ccc(NC2CCN(Cc3ccccc3)CC2)c([N+](=O)[O-])c1` (centres unmarked) it is -2.54%.
The same measure for `CC1CN(C(=O)COC(=O)c2cccc(NS(=O)(=O)c3ccccc3)c2)CC(C)O1` (centres unmarked): -0.0601%; for `CC(C)(C)OC(=O)NCCCC[C@H](NC(=O)c1[nH]cnc1C(=O)Nc1ccc(CNC(=O)OC(C)(C)C)cc1)C(=O)OC(C)(C)C`: 24%.
The figure for `O=C(CN1C(=O)S/C(=C\c2cccc(Cl)c2)C1=O)NC1C=CS(=O)(=O)C1` (centres unmarked) is 18.1%.
Consider `CCOC(=O)c1c(C)[nH]c(C)c1C(=O)CSc1nc2ccccc2n1CCC#N`, for which the “hERG current change (%, negative = inhibition) at 10uM” value was 8.67%.
The figure for `O=[n+]1c2c(n([O-])c3ccccc31)CCCC2` is 5.87%; for `CCCN1CCN(C(=O)Cn2cnc3ccc(S(=O)(=O)N4CCC(C)CC4)cc3c2=O)CC1` it is -36.3%; for `Cc1cccc(NC(=O)CSCc2cc(=O)n3ccsc3n2)c1C` it is 13.3%.
The figure for `C/C=C(\C)C(=O)O[C@@H]([C@H](O)c1cc2ccc(=O)oc2cc1OC)C(C)(C)O` is 11.6%.
The figure for `O=C(COc1ccc(-n2cnnn2)cc1)Nc1ccc(F)c(F)c1F` is 5.48%; for `O=C(CN1CCN(c2ccccc2)CC1)c1c[nH]c2ccccc12` it is -0.617%.
For the compound `Cc1cc(C(C)(C)C)ccc1NC(=O)CC(C)(C)CC(=O)O`, the “hERG current change (%, negative = inhibition) at 10uM” value worked out at 11.7%.
The same measure for `COc1cc(NC(=O)Cc2nn(C)c(=O)c3ccccc23)cc(OC)c1`: 4.35%; for `CCCNc1cc(=S)nc(N)[nH]1`: 17.2%; for `Cc1ccc(C(=O)NC2(C(Cl)Cl)N=C(c3ccccc3)N=C2N)cc1` (centres unmarked): 9.56%.
The same measure for `Cc1cccc2nc(-c3cccnc3)c(NCCC(C)C)n12`: -20%; for `COc1ccc(-c2cc3nc4c(c(=O)n3[nH]2)CCC4)cc1`: 3.27%.
The figure for `CC(C)CN1C(=O)C(=O)N(CC(=O)Nc2cccc(Cl)c2Cl)C1=O` is -3.9%; for `Cc1c(O)ccc(C(=O)COc2ccc(F)cc2)c1O` it is 6.74%.
Turning to `COc1cc2c(cc1OC)C(C)N(S(=O)(=O)c1ccc(Cl)nc1)CC2` (centres unmarked), the “hERG current change (%, negative = inhibition) at 10uM” value was -8.5%.
